According to the RNAGym collection of RNA variant scans (doi:10.7554/elife.90254):
Read counts are not given, so values of variants with three or more changes are uncertain.

B1: OR4K15 (parent)
chain: GUUAACGGUCAUAGGCCAUGGAAACUAGGAGCACCAUUUCGCUGCCAGUGAAGAAAUGAACAAAGAAAAUCUGGGCCAGGCAGGCAUCAAAAGAAAUAGUCUUGCGCUCAACCAGAAAGUCUGUAAUCAUUUUAAGGGUA

Variants of: B1
Test: self-cleavage, relative activity (ratio to wild type); higher = more cleavage; in vitro, sequencing; the parent is a self-cleaving ribozyme

| Variant | self-cleavage |
| --- | --- |
| A55G A78U C81U A114G U131G | 0 |
| U57C A62G A67U | 1.12 |
| A55G A63G A91G U122C | 0.71 |
| A54U A56G A60G | 1.22 |
| A56G A66G U100C U130C | 2.64 |
| A55G A67G A116G | 0.18 |
| A54G A78G U139A | 0.44 |
| A56G A60G G84U | 0.33 |
| A56G A60G A94G U102C U127C | 1.24 |
| A55G A117U C121A | 2.31 |
| G58U A92G A111G U122G | 0 |
| A59G A63G U70C A96G | 0.34 |
| A54G U72C A90G U133C | 0.26 |
| A55G U108C A116G | 0.01 |
| A56G A78U A86G A94G A126U | 0.06 |
| A55G A64G A90G U102C | 1.89 |
| A54U U100C A116G | 0.81 |
| A56G A64G A69U A78G U97C U108G U120C U132C A135C | 0 |
| A55G A89U A114G | 0.12 |
| U57G A62G U72C U103C A111G A114G U122C | 0.01 |
| A55G U97A G138C | 0.72 |
| A54G A78G A114G A125G | 0.03 |
| A59G A64G A67G A82G | 0.51 |
| U57C A59U A110U | 0.98 |

| Variant | self-cleavage |
| --- | --- |
| A54G A126U U130C U131C | 0.81 |
| A55G A60G A64G A94G | 0.68 |
| A55G A59G A82G | 0.2 |
| A56G A59G U87A A95G A111G G137A | 0 |
| A55G A117G U131A U132A | 1.09 |
| A56G U72C A96G A116G U122C | 0.05 |
| A56C U87G A117G A129U | 0.09 |
| A56C A59G A95G A110G C113U | 0.01 |
| A56G A60G U72A A126U | 0.18 |
| A56U U108C U130C | 0 |
| A55G A78G A125C | 0.06 |
| A54G U108C A118G | 0.02 |
| A55G A60G A98G | 0.7 |
| A55G A82G U87G A94G U120C | 0.18 |
| A56C A59G A68G | 0.42 |
| A56G A64G A69G A78G A95G U127A | 0.4 |
| A55G A63G U130C | 1.67 |
| A54G A98G A125U A126G | 0.26 |
| U57C U72A G84C G99A G115A | 0 |
| A56G A66G A126C | 1.5 |
| A55G A90G A118G | 0.22 |
| A59G A67G A86U A92G U100C | 1.83 |
| A56G A63G U131C | 1.76 |
| A55C A95G U102C U103C U127C | 0.1 |

| Variant | self-cleavage |
| --- | --- |
| A55G A94G A114U | 0.02 |
| A56G A111G U127C | 0.01 |
| A54G A111U U139C | 0.13 |
| U57C A91G U127C | 0.51 |
| A55G A67G A98G | 0.46 |
| U57C C105U U122C U130C | 0.03 |
| A55G A64G A78C | 0.19 |
| U57C A92G U122C U127C | 1.06 |
| A55G A64G U72C U87C A129G | 0.08 |
| G58A U100C U108A A114G | 0.02 |
| A56G C109A U130C | 0.28 |
| A56G U108C A126G | 0 |
| A56G U120C U122C U130C | 1.06 |
| A56U A82G A110G | 0.1 |
| U57A A67G U87A G136A | 1.57 |
| A55G A66G A111G | 0.05 |
| A56U G104A U132A | 0.04 |
| A55G A67G A94G A117G | 1.18 |
| U57C A78G A125G | 0.03 |
| A56G U124C A125G | 1.52 |
| U57C U70C A92G | 0.75 |
| U57A A90G U108C | 0 |
| A56G U87C U122A | 0.11 |
| G58U A68G A94G U108C | 0.01 |

| Variant | self-cleavage |
| --- | --- |
| A55G A86G U87C | 0.6 |
| A56G A90G U100G | 1.35 |
| A56G U120C G138C | 1.22 |
| A55G A62U A82G U139C | 0.15 |
| A55G A78U U102C U130C | 1.14 |
| A55G G80A U100C U108A | 0.01 |
| A55G A68G A111G | 0.02 |
| A54G A90G A110G | 0.13 |
| A56G G104C A126G | 0 |
| U57G U100C U102C U124C | 1.42 |
| A55G A66G G83A U122C | 1.6 |
| A55G A59G U130G | 1.03 |
| A55G A90G A129G | 0.45 |
| A56G A60G A110U | 0.99 |
| A56C A78U U108A U130C | 0.01 |
| A56G A117G U122C | 1.52 |
| A56G A78U A82G U100C U130C U132C | 0.61 |
| A55G G104A A116U A129G A135C | 0 |
| A56U A64G U72C U122C A140U | 0.14 |
| A55G A91G U131C | 1.48 |
| U57C A78G A134G | 0.2 |
| A55G A90G U120A | 0.84 |
| A54U A67G A91G A134G | 2.08 |
| A55G A68G A96G A118G | 0.39 |

| Variant | self-cleavage |
| --- | --- |
| A54G A68G A86U A95G | 0.49 |
| A54G A94G A116G | 0.14 |
| A56G A96G U120C | 0.64 |
| U57C A86G A110U U132A | 0.95 |
| A55G G80A U87A U97A | 0.18 |
| A54G U87C U103A A117G | 0.86 |
| A56G A82U A94G A96G U122A | 0.07 |
| A54G U57C A126G | 0.79 |
| A59G A63G U108A G115A | 0.02 |
| U57C C61U A91G | 1.54 |
| A55G A62G G73A | 0.04 |
| A54U A56G A94G | 1.78 |
| G58U A89U A116G A118G | 0.1 |
| A56G A64G A94G A126G | 1.03 |
| A54G U108C U132C | 0 |
| A56G A64G A116G | 0.89 |
| G58U U100C A111G | 0.01 |
| U57C A64U G106C | 0.01 |
| A55G A69G A116G | 0.24 |
| A55G G99U A126G | 0.38 |
| A54G A91G U139C | 1.03 |
| A55G A62U U108C G138U | 0.01 |
| A54G A68G U103G U122A | 0.01 |
| A54G A86U U139C | 2.23 |

| Variant | self-cleavage |
| --- | --- |
| U57C G115U U122C U130C G138A U139A | 0 |
| A56G A116G A135U | 1.23 |
| A56C A78U A91U U120A U122C | 0.14 |
| A56G G73U A91G A96G A98G U100C U108C A110G A118G | 0 |
| A55G A92G A114G | 0.5 |
| A55G A78G U100C A125G U130C | 0.05 |
| A55C A62G A69U U122A | 1.79 |
| A56G U70C U133C | 1.39 |
| A55G A118G A140G | 0.88 |
| A55G A89G U102C U122C | 2.15 |
| G58U A111G A118G | 0.03 |
| U57A A95G A116U A126G | 0.09 |
| U57A A66G G79A A114G U127C | 0.02 |
| A54G A94U C121U | 2.55 |
| A56G A59G A67G A96G | 0.27 |
| A54U U103C U122C | 0.67 |
| A59G A66G A67G | 0.83 |
| U57C A91G A111U | 0.02 |
| A56G U102C U122C | 1.85 |
| A56U A66G A116G U127C | 0.32 |
| A55G A59U A64G U102C A111G | 0.01 |
| U57C A91G U130C | 0.54 |
| A55G U57C A86G U87C A89G U103C A129U U132C | 0.01 |
| U57G U87A A92G A118G | 0.31 |

| Variant | self-cleavage |
| --- | --- |
| A59C A110G A129U | 0.06 |
| A56C A67U U127G | 1.76 |
| A56G A67G A91G | 1.49 |
| A55U A78U G106A A110G U122C | 0.01 |
| A55U U100C U108C | 0.01 |
| A56G A117G U120C A134G | 0.66 |
| A55G A82C A90G U120C | 0.06 |
| U57C A63U A69U U131C U132C | 2.17 |
| A54G A82C A117U | 0.07 |
| A56U A64G U72C A89U | 0.23 |
| A56G A59U A66G A89G U139C | 1.37 |
| A55G A66G G73U | 0.12 |
| U57A U87C U120C | 0.5 |
| A55G U87A A98G | 0.08 |
| A55G A114U U131C | 0.09 |
| A55G A67G U70A A92G A96G A134U | 0.71 |
| A56U U72G U103C U108G | 0.02 |
| A55G A86G A111G | 0.01 |
| A55G A69G A92G A95U | 1.29 |
| A56G A78U C113U | 0.03 |
| A54G A86G A111G A116G A125G U130C | 0 |
| A55G A62C U97C | 1.16 |
| A54G A116U A118G | 0.06 |
